Results reported in ChEMBL document CHEMBL4888484, “Replenishing the malaria drug discovery pipeline: Screening and hit evaluation of the MMV Hit Generation Library 1 (HGL1) against asexual blood stage Plasmodium falciparum ,using a nano luciferase reporter read-out” (2022).
Among all 150,000 compounds or so, about 540 (0.36%) showed an effect of 50% or more. The list shows a part of the results.

system: Plasmodium falciparum; assay: Primary screen in NF54 nanoGlo assay, in single point, at 2uM, 72h; a lower Z score goes with more inhibition; format: functional, Erythrocyte; conditions: timepoint 72 hour

SMILES | % Inhibition [%] | Z score
CCCNC(=O)c1cn2c(n1)CC[C@H](c1cc(C(F)(F)F)cc(C(F)(F)F)c1)C2 | -4 | 0.64
Cc1cc(-n2nc(C)c(C)c2C)ccn1 | 4 | -0.7
O=C1c2ccc(-c3nc4ccccc4s3)cc2C(=O)N1Cc1ccccc1 | 9 | -1.11
CC(C)(CNC(=O)c1ccsn1)C1(O)CCCC1 | -2 | 0.36
CCN(CCCN1C(=O)N[C@@](C)(C(C)C)C1=O)CC(F)(F)F | -1 | 0.12
O=C(Cc1ccsc1)N1CC[C@H](n2c(=O)[nH]c3cncnc32)C1 | -10 | 0.98
OC(CCNC1CCN(C2CCOC2)CC1)c1ccc(Cl)c(Cl)c1 (stereo not given) | 2 | -0.33
O=C(c1nc2ccccc2[nH]1)N1CCN(c2ccccc2F)CC1 | -1 | 0.23
Cc1ccc(CNC(=O)N2CCCCC[C@@H]2CN2CCCC2)cc1 | -1 | 0.23
CN1N=C(C(=O)Nc2nc3c(s2)CCC3)CCC1=O | -3 | 0.53
CCc1nccn1CC(=O)N1CCC[C@H]1c1nc2c(C)cccc2[nH]1 | -6 | 1.11
Cc1ccc(F)c(-c2c(-c3ccccc3)ncn2CCc2nnn[nH]2)c1Cl | 1 | -0.12
CCS(=O)(=O)N1CCC(C(=O)OCC(C)(C)C)CC1 | -12 | 1.81
CN(C)c1ccc2c(c1)CN(C(=O)C1CCOCC1)CCO2 | 8 | -1.44
Cc1ccc(S(=O)(=O)N(C)c2ccc(C(=O)NCc3cccnc3)cc2C)cc1 | -8 | 1.35
CC(=O)Nc1ccc(C(=O)N(Cc2ccccc2C)C2(C(=O)NCc3ccccc3)CCN(C(C)=O)CC2)cc1 | -10 | 1.39
Cc1nc2ccnn2c(C)c1C(=O)N1CC[C@H](S(C)(=O)=O)C1 | -9 | 1.62
NC(=O)c1nc(CNC(=O)[C@@H]2CCC[C@H](O)C2)no1 | 0 | 0.07
CCc1ccc(C(=O)NC2=N[C@H](c3cccc(F)c3)CC(=O)N2)cc1 | -15 | 1.66
NC(=O)c1ccsc1NC(=O)CN1CCCC[C@@H]1CNC(=O)Nc1ccccc1 | -7 | 0.93
Fc1ccc(Cl)cc1CN[C@H]1CCCc2cn[nH]c21 | -11 | 1.24
COc1ccccc1/C=C/CN1CCC(Cc2nnc(CO)n2C)CC1 | -10 | 1.44
CCN(C(=O)Nc1cccc2nn(C)nc12)[C@H]1COC[C@@H]1O | -10 | 1.78
O=C(CN1C(=O)COc2ccc(Cl)cc21)N1CCc2ccccc21 | -8 | 1.02
O=C(NCCc1c[nH]c2ccccc12)OCC1CC1 | -13 | 1.65
COc1ccc(N2CCN(c3cc(C)nc(-c4ccc(Cl)cc4)n3)CC2)cc1 | -4 | 0.47
CCc1nnc2n1C[C@@H](CNc1nc3ccccc3o1)CC2 | -6 | 0.98
Cn1cnnc1[C@H]1CCCN(c2ncnc3ccccc23)C1 | -7 | 1.12

SMILES | % Inhibition [%] | Z score
N#Cc1ccc(N[C@H]2CCCC[C@H]2CCO)nc1 | -6 | 1.3
O=C([C@@H]1Cc2ccccc2S(=O)(=O)N1)N1CCC(n2cnnc2)CC1 | 0 | 0.05
CC(=O)/C(=N/Nc1ccccc1)N1CCOCC1 | 7 | -1.26
O=S(=O)(NC(c1ccccc1)c1ccccc1)c1ccc2c(c1)OCCO2 | 2 | -0.21
CCCN(C)C[C@@H]1CC(F)(F)CN1C1CCN(S(=O)(=O)c2ccccc2)CC1 | -6 | 1.12
CN1CCO[C@@H](C(=O)N2CCN(Cc3ccccc3)CC2)[C@@H]1c1ccccc1 | -15 | 1.94
O=C(NCc1ccccc1F)[C@H]1CCCN(c2cnc3nccnc3c2)C1 | -4 | 0.79
O=C(O)Cc1c(-c2ccc3c(c2)OCCCO3)nc2ccccc2c1-c1ccccc1 | 4 | -0.51
CCN(CC(=O)NCc1cccs1)Cc1ccccc1Cl | -20 | 2.11
CN1[C@@H](CO)C[C@@H](CNCc2cnc(N3CCCC3)s2)[C@H]1c1ccccc1F | -15 | 2.02
COCCc1noc(C2(F)CCN(C(=O)c3cc(F)cc(F)c3)CC2)n1 | -5 | 0.91
CC(C)CNC(=O)CN1CC[C@H](CCO)C1 | -17 | 1.53
CN(C)C1CCCC1Oc1ccccn1 (stereo not given) | -5 | 0.65
CC(C(=O)N1CCCC1)N1CCCCC1Cn1cncn1 (stereo not given) | 0 | -0.01
CC1CN(S(=O)(=O)c2cccc(C(=O)NC3CCCc4ccccc43)c2)CC(C)O1 (stereo not given) | -2 | 0.33
Oc1cncc(-c2cccc(C(F)(F)F)c2)n1 | -11 | 1.38
CCCCOc1ccc(CN)cc1OCC | -5 | 0.68
CN=C(NCc1ccccc1)N(C)Cc1ccccc1 | -6 | 0.78
CCN1C[C@H](CN(C)C(=O)Nc2nc3ccccc3s2)Oc2ccccc21 | -8 | 0.94
CC[C@H](NC(=O)OC(C)(C)C)c1nc(-c2ccsc2)no1 | -4 | 0.3
O=S(=O)(CC1CCOCC1)N[C@H]1CCOc2ccc(F)cc21 | 1 | -0.16
CN(C)c1ncnc2cc(C(=O)Nc3ccc(F)c(Cl)c3)ccc12 | 9 | -1.37
Cc1cccc(N(C)S(=O)(=O)CCCS(=O)(=O)N(C)C)c1 | -1 | 0.07
Cc1cccc(N2CCC(n3cnc4cn(C)nc4c3=O)CC2)c1 | -3 | 0.61
CN(C)c1n[nH]c(NC(=O)c2ccc(OC(F)F)cc2F)n1 | -8 | 1.26
CC(C)(CC(=O)NC1(CO)CCOCC1)CC(=O)c1ccccc1 | -1 | 0.16
CS(=O)(=O)N(CCN1CCCCC1)C1CN(C(=O)c2ccc(F)c(F)c2)C1 | -15 | 1.97
